Measurements: article PMC4336329 (PLoS ONE, 2015)
The campaign covered roughly 310,000 compounds. About 2,200 (0.71%) showed an effect of 50% or more. The effect is printed as a negative number. This is one part of the list.

The compounds below were run against human ether-à-go-go-related gene (hERG) potassium channel (human, UniProt Q12809) (assay: primary screen, population patch clamp on CHO cells stably expressing hERG).
Chain of human ether-à-go-go-related gene (hERG) potassium channel (Q12809 whole entry, looked up): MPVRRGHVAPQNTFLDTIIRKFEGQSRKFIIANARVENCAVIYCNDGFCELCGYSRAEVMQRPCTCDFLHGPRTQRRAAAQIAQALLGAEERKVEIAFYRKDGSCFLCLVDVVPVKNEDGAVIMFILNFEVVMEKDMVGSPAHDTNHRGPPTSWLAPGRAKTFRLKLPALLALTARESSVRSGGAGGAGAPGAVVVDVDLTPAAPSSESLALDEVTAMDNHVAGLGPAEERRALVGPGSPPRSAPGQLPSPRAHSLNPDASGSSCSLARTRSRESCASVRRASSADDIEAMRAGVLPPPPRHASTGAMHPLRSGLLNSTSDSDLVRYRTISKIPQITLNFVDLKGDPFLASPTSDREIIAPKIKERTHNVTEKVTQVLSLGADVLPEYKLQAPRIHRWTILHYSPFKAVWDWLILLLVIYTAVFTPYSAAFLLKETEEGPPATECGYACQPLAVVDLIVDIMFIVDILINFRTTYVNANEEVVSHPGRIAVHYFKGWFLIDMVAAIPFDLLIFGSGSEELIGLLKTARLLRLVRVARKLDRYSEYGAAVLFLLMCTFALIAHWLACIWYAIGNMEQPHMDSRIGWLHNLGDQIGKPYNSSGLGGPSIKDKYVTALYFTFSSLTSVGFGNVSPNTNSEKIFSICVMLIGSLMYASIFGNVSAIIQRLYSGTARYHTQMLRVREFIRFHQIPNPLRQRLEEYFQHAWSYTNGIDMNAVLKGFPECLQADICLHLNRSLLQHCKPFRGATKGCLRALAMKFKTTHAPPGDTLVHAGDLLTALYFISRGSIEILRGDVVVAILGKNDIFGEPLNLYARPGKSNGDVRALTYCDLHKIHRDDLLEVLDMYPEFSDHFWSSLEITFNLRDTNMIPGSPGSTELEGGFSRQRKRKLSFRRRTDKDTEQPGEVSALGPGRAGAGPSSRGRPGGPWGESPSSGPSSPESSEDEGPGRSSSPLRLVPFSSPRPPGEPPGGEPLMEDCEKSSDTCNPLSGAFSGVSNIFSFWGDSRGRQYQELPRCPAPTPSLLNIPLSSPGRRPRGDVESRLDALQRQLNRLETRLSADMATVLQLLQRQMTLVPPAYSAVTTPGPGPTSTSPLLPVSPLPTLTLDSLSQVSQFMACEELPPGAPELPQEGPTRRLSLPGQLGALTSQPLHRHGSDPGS

SMILES | hERG current change (%, negative = inhibition) at 1uM
O=C(O)c1cccc(N2C(=O)C3C4C=CC(C4=C(c4ccccc4)c4ccccc4)C3C2=O)c1 (stereo not drawn) | 9.57%
CCO[C@H]1OC(C(=O)NCc2ccccc2)=C[C@@H](c2coc3ccccc3c2=O)[C@@H]1CCCO | 0.438%
COc1cc(S(=O)(=O)NCc2ccncc2)c(OC)cc1C | 6.43%
CC(Cc1ccsc1)NCc1cn[nH]c1-c1ccc(F)cc1F (stereo not drawn) | -9.31%
O=C(CN1C(=O)c2ccccc2S1(=O)=O)Nc1ncccn1 | 1.63%
Cc1nn(C)cc1S(=O)(=O)Nc1ccc(C(F)(F)F)cc1 | 19.7%
Cc1sc2nc(SCC(=O)NCc3ccco3)[nH]c(=O)c2c1C | 17.4%
COc1cc(/C=C2\OC(=O)c3c(OC)cccc32)ccc1O | 14.9%
COC(=O)c1ccc(-c2noc(CN(Cc3nccn3C)C(C)C)n2)cc1 | 5.78%
COC(=O)CSc1ncnc2c1cnn2Cc1ccccc1 | 7.3%
Cc1cc(C2CCCCC2)n(O)c(=O)c1.NCCO | 11.1%
S=C(Nc1ccccc1)N1N=C(c2cccs2)CC1c1cccs1 (stereo not drawn) | 21.7%
Cc1[nH][nH]c(=O)c1C(c1ccc(F)cc1)c1c(C)[nH][nH]c1=O | 8.58%
CCOc1ccc(NC(=O)CN(c2ccc([N+](=O)[O-])cc2)S(=O)(=O)c2ccccc2)cc1 | 4%
O=C(NC1CCN(S(=O)(=O)c2ccc(Cl)cc2)CC1)c1cccnc1 | 15.9%
O=C(NCc1cccnc1)C12CC3CC(CC(C3)C1)C2 | 8.7%
Cn1c(CCN2CCN(c3ccccn3)CC2)nc2cc(NS(=O)(=O)c3ccc(Cl)cc3)ccc21 | -69.2%
COc1ccc(CCNC(=O)COC(=O)/C=C/c2ccc(OCC#N)c(OC)c2)cc1OC | 3.42%
CCCC(C(=O)O)N1C(=O)/C(=C/c2cccn2C)SC1=S (stereo not drawn) | 15.3%
Cc1ccc(NC(=O)Cc2nc(CSc3nnc(-c4ccc5c(c4)OCO5)o3)cs2)cc1 | 4.54%
CC1Cc2ccccc2N1NC(=O)c1ccc(Cl)c(S(N)(=O)=O)c1 (stereo not drawn) | 6.92%
Cc1cc(NC(=O)Cn2nnc(-c3ccccc3N)n2)no1 | 6.84%
O=C1NC(c2ccncc2)Nc2sc3c(c21)CCCC3 (stereo not drawn) | 13.8%

SMILES | hERG current change (%, negative = inhibition) at 1uM
CCc1ccc(NC(=O)c2cccc(C(=O)Nc3ccc(CC)cc3)n2)cc1 | 7.07%
Cc1nnc(SCC(=O)c2cc(C)n(-c3c(C)n(C)n(-c4ccccc4)c3=O)c2C)s1 | 9.06%
COc1cccc(CN2CCN(Cc3ccc4c(c3)OCCO4)CC2CCO)c1 (stereo not drawn) | 7.12%
CCc1ccc(C(C)NC(=O)/C=C/c2ccc(Br)cc2)cc1 (stereo not drawn) | -17.3%
CCOC(=O)C1(CC)CC(CSc2nc3ccccc3[nH]2)OC1=O.Cl (stereo not drawn) | 11.7%
CCOc1ccc2[nH]cc(C(=O)NCc3ccc(F)cc3)c(=O)c2c1 | 15.6%
O=C(COC(=O)c1cccc2ccccc12)Nc1cccnc1Cl | 3.23%
CC(=O)c1c(C)n(CCO)c2ccc(O)cc12 | -1.68%
NS(=O)(=O)c1ccc(Cc2ncc(C(F)(F)F)cc2Cl)s1 | 10.8%
CC1(C(=O)NC2CCCCC2)CCC(=O)N1Cc1cccs1 (stereo not drawn) | 5.72%
CCCCn1c(CCC(=O)O)nc2c1c(=O)[nH]c(=O)n2CCC | -4.72%
COCCNC(=O)C1c2cc(OC)c(OC)cc2C(=O)N(C)C1c1cccnc1 (stereo not drawn) | 5.43%
CC[N+](CC)(CC)CCCCCCCCCC[N+](CC)(CC)CC.[Br-] | 10.3%
CSc1nnc(CNS(=O)(=O)c2ccc(Br)cc2)n1C | 8.2%
CN1CCN(C(=S)Nc2ccc(Cl)c(Cl)c2)CC1 | -4.89%
CC(Oc1ccc(Cl)cc1Cl)C(=O)Nc1cccnc1 (stereo not drawn) | 1.91%
COC(=O)c1cc(Br)c(=O)n(CCC2=CCCCC2)c1 | 4.57%
CC(C)(C)NC(=O)c1ccc2c(c1)N(CC(=O)NC1CCCC1)C(=O)C(C)(C)O2 | 12.6%
Cc1ccc(S(=O)(=O)CC(c2ccccc2)N2CCOCC2)cc1 (stereo not drawn) | 6.98%
CCCN(C(=O)c1cc(CC)c(C)s1)c1c(N)n(Cc2ccccc2)c(=O)[nH]c1=O | 16.1%
Cc1c(Cc2ccccc2)sc(NC(=O)Cc2ccccc2)c1C(N)=O | 13.5%
CC(C)c1cc(C(=O)NC2CCCc3c2cnn3-c2ccccc2F)no1 (stereo not drawn) | 3.72%
CCOC(=O)C1CCN(C(=O)CN(c2ccc(OC)cc2)S(=O)(=O)c2c(C)nn(C)c2C)CC1 | 13.1%

SMILES | hERG current change (%, negative = inhibition) at 1uM
CN1CCN(S(=O)(=O)c2ccc(N(C)CC(=O)Nc3ccc(F)cc3)nc2)CC1 | 8.96%
CN1C(=O)C(CC(=O)O)S/C1=N\N=C\c1ccc(O)cc1O (stereo not drawn) | 3.52%
CCc1ccc(NC(=O)C/C(C)=N/NC(=O)COc2ccc(C)cc2Br)cc1 | -5.13%
CN1CCN(CC(O)COC(c2ccc(Cl)cc2)c2ccc(Cl)cc2)CC1.Cl (stereo not drawn) | -47.8%
CCOC(=O)N1CCN(C(=O)c2cccc(-n3c(=S)[nH]c4cc(Cl)ccc4c3=O)c2)CC1 | 4.67%
Cc1cccc(-n2c(-c3csc(C)c3C)n[nH]c2=S)c1 | 10.8%
COc1ccc(NC(=O)COC(=O)CNC(=O)c2cccs2)cc1Cl | 2.52%
Cl.OC(c1ccccc1)(c1ccccc1)C1CN2CCC1CC2 (stereo not drawn) | -1.7%
CCOc1cc(C(=O)OCC(=O)Nc2cc(C)on2)cc(OCC)c1OCC | 6.73%
O=C(Nc1ccccc1)N1CCC(c2nc(-c3ccc(S(=O)(=O)N4CCOCC4)cc3)no2)CC1 | -4.93%
CCn1c(=O)c(=O)[nH]c2cc(C(=O)N(C)Cc3ccc(OC)c(F)c3)ccc21 | 12.3%
OC(CN1CCN(c2ccccc2F)CC1)c1ccc(F)cc1 (stereo not drawn) | 0.865%
Cc1cccc(C(=O)NC(=S)NNC(=O)c2cccs2)c1 | 10.4%
CCCN(CCC)S(=O)(=O)c1ccc(C(=O)N2CCCc3ccccc32)cc1 | 8.53%
O=C(NC1CC1)c1cc2cc3ccccc3nc2s1 | 5.21%
O=C(Nc1ccc(Cl)cc1)c1ccncc1 | 11.3%
CCc1cc(C(=O)COc2ccc(F)cc2)c(O)cc1O | 5.76%
CC1(C)CN(c2ccccc2)N(Cc2ccc(F)cc2)C1=O | -4.34%
Cc1cccc(OCCCCCNCCO)c1 | 8.25%
CCOC(=O)Nc1nn(-c2ccc(C)cc2)c(=O)c(C#N)c1C | -0.101%
Cc1ccccc1Nc1nc(N)nc(CSc2nc3ccccc3c(=O)n2C)n1 | 9.44%
O=C(NNC(=O)c1ccccc1[N+](=O)[O-])c1ccccn1 | 3.32%
CN(C)/C=N/c1ncc(C(=O)c2ccc3ccccc3c2)s1 | -2.51%

SMILES | hERG current change (%, negative = inhibition) at 1uM
Cc1cc(/C=C(/C#N)c2nc3ccccc3[nH]2)c(C)n1-c1cccc([N+](=O)[O-])c1 | 16%
Cc1ccc2c(c1)C1CN(C)CCC1N2C(=O)Cn1nnc(-c2ccccc2F)n1 (stereo not drawn) | -9.36%
N#CC1(NC(=O)COC(=O)Cc2n[nH]c(=O)c3ccccc23)CCCCC1 | 8.96%
CCCc1cc(=O)[nH]c(SCC(=O)c2cc(C)n(CCC)c2C)n1 | 12.2%
CCCNc1nc2ccccc2c(=O)[nH]1 | 13.9%
NC(=O)NC(Cc1ccccc1)C(=O)NCC1(N2CCCCC2)CCCCC1 (stereo not drawn) | 10.6%
C/C(=N/NC(=O)CNC(=O)c1cccs1)c1ccco1 | 11%
COc1ccc(CNC(=O)C2=CC(c3ccc(OC)cc3)=NS(=O)(=O)N2C)cc1 | -18.9%
O=CN1CCN(C(=O)CN2C(=O)c3ccccc3C2=O)CC1 | 4.48%
NC(=O)NC(=O)COC(=O)/C=C/c1cccc(Br)c1 | -3.47%
CCCCCCCCCCCCCCCC(=O)OC(CC(=O)O)C[N+](C)(C)C.[Cl-] (stereo not drawn) | -8.25%
O=C(CCOc1ccccc1)Nc1ccccc1 | 11.3%
Cc1ccc2[nH]c(=O)c3cc(C(=O)NC(C)C)sc3c2c1 | 14.6%
COC(=O)NNC(=O)c1cccc(C)c1 | -0.0022%
COc1ccc(-n2cnc3scc(-c4ccccc4)c3c2=O)cc1 | 12%
CC(C)OP(=O)(Nc1cccc2ccccc12)OC(C)C | 5.85%
O=C(CCCn1c(=S)[nH]c2ccc(Br)cc2c1=O)N1CCN(c2ccccn2)CC1 | -6.43%
CC1CN(C(=O)COC(=O)c2cc(Cl)ccc2Cl)CC(C)O1 (stereo not drawn) | 8.04%
CN(CC(=O)Nc1c(Cl)cccc1Cl)C(=O)Cc1ccc2c(c1)CCC2 | 19.2%
CC(=O)C1C(c2ccc(F)cc2)c2c(noc2C)CC1(C)O (stereo not drawn) | 14.4%
COc1ccc(S(=O)(=O)N2CCCOC2CNC(=O)C(=O)NCCCN2CCOCC2)cc1 (stereo not drawn) | 13.3%
